Consider 23 compounds from PubChem BioAssay (NCI).

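The compound was tested at five concentrations on cells cultured in 96-well plates, with a 48-hour exposure period. Abbreviation: GI50, concentration required for 50% inhibition of growth. At the TGI there is no net growth.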

For this experiment, the system named is NCI-H322M lung. The experiment can be described thus: NCI anticancer screen, dose series, 48 h.
On to `C=C1C(=O)O[C@H]2C/C(C)=C/CC/C(C)=C/CC[C@@](C)(O)[C@@H](I)C[C@@H]12`, for which the TGI was 26.8 µM.

`Nc1ccc(-c2nc3cc(F)ccc3s2)cc1I` displayed a TGI of over 60.9 µM.

As for `N#Cc1c(N2CCCC2)ncn(Cc2ccccc2)c1=S`, the TGI is over 100 µM.

Take `O=C(OCCN1CCCCC1)C(c1ccccc1)C1(O)CCSCC1` (centres undefined): the TGI is over 100 µM.

As for `CCOC(=O)c1c2c(n(-c3ccc(OC)cc3)c1C)C(=O)C(=O)c1ccccc1-2`, the TGI was found to be 3.29 µM.

The compound `COc1ccc(/C=C2\CC3C4CC=C5C[C@@H](O)CC[C@]5(C)C4CC[C@]3(C)\C2=N\O)cc1OC` (some centres undefined) returned a TGI of over 100 µM.

Take `CCN(CC)c1ccc(N=C2C=C(C(=O)Nc3ccc(S(C)(=O)=O)cc3)C(=O)c3ccccc32)c(C)c1`: the GI50 was over 100 µM and the TGI was over 100 µM.

The compound `O=C(Nc1c(Cl)cc([N+](=O)[O-])cc1Cl)C(=O)C1C(=O)NC(=S)NC1=O` yielded a TGI of over 100 µM.

The compound `Cc1cc(NS(=O)(=O)c2ccc(NC(=O)c3cccc4c(NNc5ccc(S(=O)(=O)N=C(N)N)cc5)c5ccccc5nc34)cc2)no1` had a TGI of over 100 µM.

Regarding `Cn1ccnc1C(c1nccn1C)C(C)(C)[N+](=O)[O-]`, the TGI is over 100 µM.

Compound `COc1ccc(C(=C(I)c2ccccc2)c2ccc(OC)cc2)cc1` came in with a TGI of over 100 µM.

On to `O=c1[nH]cnc2c1nnn2C1OC(CO)C(O)C1O` (centres undefined), for which the GI50 was 8.66 µM and the TGI is over 100 µM.

In turn, `O=C1C=C2CO[C@H]3OC[C@H](O)[C@@H]1[C@@H]23` gave a TGI of over 100 µM.

Consider `CCc1ccc(-c2ccc(=O)n(-c3ccc(S(N)(=O)=O)cc3)n2)cc1`, for which the GI50 is over 37.8 µM and the TGI is 99.4 µM.

On to `O=[N+]([O-])c1cc(O)c(O)cc1-c1cn2ccsc2n1`, for which the GI50 is 31.9 µM and the TGI came to 98.1 µM.

For the compound `CS(=O)(=O)N(CCC#N)c1ccc(/C=N/NC(=O)CC(=O)Nc2cccc(Cl)c2)cc1`, the TGI was over 100 µM.

`COc1ccc(-c2nc(-c3cc4ccccc4oc3=O)cs2)cc1`: the TGI was over 100 µM.

`CC(C)[C@H]1NC(=O)[C@H]2N=C(O[C@@H]2C)[C@@H]2CCCN2C(=O)[C@H](Cc2ccccc2)NC(=O)[C@@H]2CSC(=N2)[C@@H](Cc2ccccc2)NC(=O)[C@@H]2CSC1=N2`: the TGI was over 100 µM.

Turning to `CC(=N\O)/C(C)=N/O.CC(=N\O)/C(C)=N/O.CC(=N\O)/C(C)=N/O.CC(=N\O)/C(C)=N/O.[Cu].[Cu]`, the GI50 was 16.1 µM and the TGI was 32 µM.

For the compound `Nc1nc2c(c3ncccc13)C(c1ccc(Cl)c(Cl)c1)Cc1ncccc1-2` (centres undefined), the GI50 was 7.98 µM and the TGI stood at 21.4 µM.

Compound `c1cc(C[S+]2CCCC2)ccc1C[S+]1CCCC1` had a TGI of over 100 µM.

The compound `COc1cccc2c1C1(O)C2CCCC12OCCCO2` (centres undefined) had a TGI of over 100 µM.

As for `COc1ccc(S(=O)(=O)N/N=C/CN2C(=O)c3ccccc3C2=O)cc1OC`, the TGI was over 100 µM.
